Results taken from the supplement of paper PMC10369915.
The list shows a part of the results. Rule as the data show it: active = 3.2 or more and inactive = the rest. The signal is at background level for most entries.

B1: GCHFR_Y48_P53L_YF (peptide)
chain: NFFEFYVDDPL
B2: GCHFR_Y48_YF (peptide)
chain: NFFEFYVDDPP
B3: GCK_Y413_K414E (peptide)
chain: VDGSVYELHPS
B4: GCK_Y413_S411F (peptide)
chain: VDGFVYKLHPS
B5: GCNT3_Y267_K266N (peptide)
chain: ETRWNYHFEVV
B6: GDAP2_Y487_T489A_YF (peptide)
chain: RENGPYFASFP
B7: GDAP2_Y488 (peptide)
chain: ENGPYYTSYPP
B8: GDAP2_Y491_T489A (peptide)
chain: PYYASYPPSPD
B9: GDPD5_Y30 (peptide)
chain: CRWKRYQRSHD
B10: GDPD5_Y30_R32C (peptide)
chain: CRWKRYQCSHD
B11: GFAP_Y116 (peptide)
chain: KLADVYQAELR
B12: GFAP_Y242_R239C (peptide)
chain: EICTQYEAMAS
B13: GFAP_Y242_R239P (peptide)
chain: EIPTQYEAMAS
B14: GFAP_Y349 (peptide)
chain: RHLQEYQDLLN
B15: GFAP_Y349_L352P (peptide)
chain: RHLQEYQDPLN
B16: GGCX_Y301 (peptide)
chain: IGMFSYVMLAS
B17: GGCX_Y301_F299S (peptide)
chain: IGMSSYVMLAS
B18: GHR_Y226_R229G (peptide)
chain: KVDKEYEVGVR

Biological target: SHP2 C-SH2 domain E139D
Experiment: enrichment score (SH2-bound / input frequency) (ratio); bacterial display of known human phosphotyrosine sites (pTyr-Var adds point mutants) read by sequencing; higher = stronger binding; tyrosines were phosphorylated by kinases first
Conditions: peptide library: pTyr-Var
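Also: displayed peptides selected on beads carrying the immobilized SH2 domain, with library peptides lacking any tyrosine serving as negative controls.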

Enrichment score, inactive:
B1 1.54
B2 0.94
B3 0.466
B4 0.657
B5 1.33
B6 1.83
B7 0.654
B8 0.793
B9 0.253
B10 0.705
B11 0.908
B12 0.808
B13 0.644
B14 0.877
B15 0.69
B16 0.628
B17 1.24
B18 0.668

Biological target: SHP2 C-SH2 domain wild-type
Experiment: as above
Conditions: peptide library: pTyr-Var

Enrichment score, inactive:
B1 1.24
B2 1
B3 0.525
B4 0.687
B5 1.31
B6 0.907
B7 0.508
B8 0.664
B9 0.276
B10 0.708
B11 0.782
B12 0.768
B13 0.675
B14 0.678
B15 0.728
B16 1.04
B17 2.01
B18 0.572

Biological target: SHP2 N-SH2 domain L43F
Experiment: as above
Conditions: peptide library: pTyr-Var

Enrichment score, inactive:
B1 1.13
B2 1.28
B3 0.648
B4 0.823
B5 0.882
B6 0.759
B7 0.486
B8 0.688
B9 0.234
B10 0.591
B11 0.895
B12 0.649
B13 0.719
B14 1.27
B15 0.711
B16 0.991
B17 1.3
B18 0.689

Biological target: SHP2 N-SH2 domain T42A
Experiment: as above
Conditions: peptide library: pTyr-Var

Enrichment score, active:
B17 5.15

Enrichment score, inactive:
B1 1.18
B2 0.989
B3 0.557
B4 0.928
B5 1.08
B6 0.81
B7 0.488
B8 0.623
B9 0.334
B10 0.765
B11 0.715
B12 0.688
B13 0.652
B14 0.849
B15 0.647
B16 0.754
B18 0.606

Biological target: SHP2 N-SH2 domain T52S
Experiment: as above
Conditions: peptide library: pTyr-Var

Enrichment score, inactive:
B1 1.07
B2 1
B3 0.755
B4 0.759
B5 0.887
B6 0.881
B7 0.43
B8 0.623
B9 0.256
B10 0.692
B11 0.782
B12 0.634
B13 0.653
B14 0.899
B15 0.574
B16 0.964
B17 2.42
B18 0.551

Biological target: SHP2 N-SH2 domain wild-type
Experiment: as above
Conditions: peptide library: pTyr-Var

Enrichment score, inactive:
B1 1.19
B2 0.773
B3 0.925
B4 0.852
B5 1.59
B6 0.879
B7 0.476
B8 0.67
B9 0.243
B10 0.603
B11 0.797
B12 0.512
B13 0.558
B14 0.907
B15 0.901
B16 0.995
B17 1.26
B18 0.703
